# In the supplement of paper PMC8728848:
# The list shows a part of the results.
# Legend:
# Assay in all cases: glycan array binding signal (z-score within array); higher = stronger binding
# Conditions in all cases: glycan notation: IUPAC condensed, linker removed
# [1] = molecular target: Neu5Ac(a2-6)Gal(b1-4)GlcNAc(b1-2)Man(a1-3)[GlcNAc(b1-4)][Neu5Ac(a2-6)Gal(b1-4)GlcNAc(b1-2)Man(a1-6)]Man(b1-4)GlcNAc(b1-4)GlcNAc
# Procedure, shortened: (§1)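 From the Consortium for Functional Glycomics database, 3228 arrays were curated, keeping only those whose protein sequence was available. Binding is given as a within-array Z-score averaged across arrays sharing a protein sequence and across linkers. Negative Z-scores can be read as non-binding.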
# [2] = molecular target: Neu5Ac(a2-6)Gal(b1-4)GlcNAc(b1-2)Man(a1-3)[Man(a1-6)]Man(b1-4)GlcNAc(b1-4)GlcNAc
# Procedure, shortened: as §1
# [3] = molecular target: Neu5Ac(a2-6)Gal(b1-4)GlcNAc(b1-2)Man(a1-3)[Neu5Ac(a2-3)Gal(b1-4)GlcNAc(b1-2)Man(a1-6)]Man(b1-4)GlcNAc(b1-4)GlcNAc
# Procedure, shortened: as §1
# [4] = molecular target: Neu5Ac(a2-6)Gal(b1-4)GlcNAc(b1-2)Man(a1-3)[Neu5Ac(a2-6)Gal(b1-4)GlcNAc(b1-2)Man(a1-6)]Man(b1-4)GlcNAc(b1-4)GlcNAc
# Procedure, shortened: as §1
# [5] = molecular target: Neu5Ac(a2-6)Gal(b1-4)GlcNAc(b1-2)Man(a1-3)[Neu5Ac(a2-6)Gal(b1-4)GlcNAc(b1-2)Man(a1-6)]Man(b1-4)GlcNAc(b1-4)[Fuc(a1-6)]GlcNAc
# Procedure, shortened: as §1
# [6] = molecular target: Neu5Ac(a2-6)Gal(b1-4)GlcNAc(b1-2)Man(a1-6)Man(b1-4)GlcNAc(b1-4)GlcNAc
# Procedure, shortened: as §1
# [7] = molecular target: Neu5Ac(a2-6)Gal(b1-4)GlcNAc(b1-2)Man(a1-6)[Gal(b1-4)GlcNAc(b1-2)Man(a1-3)]Man(b1-4)GlcNAc(b1-4)GlcNAc
# Procedure, shortened: as §1
# [8] = molecular target: Neu5Ac(a2-6)Gal(b1-4)GlcNAc(b1-2)Man(a1-6)[GlcNAc(b1-2)Man(a1-3)]Man(b1-4)GlcNAc(b1-4)GlcNAc
# Procedure, shortened: as §1
# [9] = molecular target: Neu5Ac(a2-6)Gal(b1-4)GlcNAc(b1-2)Man(a1-6)[Man(a1-3)]Man(b1-4)GlcNAc(b1-4)GlcNAc
# Procedure, shortened: as §1
# [10] = molecular target: Neu5Ac(a2-6)Gal(b1-4)GlcNAc(b1-2)[Neu5Ac(a2-6)Gal(b1-4)GlcNAc(b1-4)]Man(a1-3)[GlcNAc(b1-4)][Neu5Ac(a2-6)Gal(b1-4)GlcNAc(b1-2)[Neu5Ac(a2-6)Gal(b1-4)GlcNAc(b1-6)]Man(a1-6)]Man(b1-4)GlcNAc(b1-4)GlcNAc
# Procedure, shortened: as §1
# [11] = molecular target: Neu5Ac(a2-6)Gal(b1-4)GlcNAc(b1-2)[Neu5Ac(a2-6)Gal(b1-4)GlcNAc(b1-4)]Man(a1-3)[GlcNAc(b1-4)][Neu5Ac(a2-6)Gal(b1-4)GlcNAc(b1-4)Man(a1-6)]Man(b1-4)GlcNAc(b1-4)GlcNAc
# Procedure, shortened: as §1
# [12] = molecular target: Neu5Ac(a2-6)Gal(b1-4)GlcNAc(b1-2)[Neu5Ac(a2-6)Gal(b1-4)GlcNAc(b1-6)]Man(a1-6)[Neu5Ac(a2-6)Gal(b1-4)GlcNAc(b1-2)Man(a1-3)][GlcNAc(b1-4)]Man(b1-4)GlcNAc(b1-4)GlcNAc
# Procedure, shortened: as §1
# [13] = molecular target: Neu5Ac(a2-6)Gal(b1-4)GlcNAc(b1-3)Gal(b1-3)GlcNAc
# Procedure, shortened: as §1
# [14] = molecular target: Neu5Ac(a2-6)Gal(b1-4)GlcNAc(b1-3)Gal(b1-4)GlcNAc
# Procedure, shortened: as §1
# [15] = molecular target: Neu5Ac(a2-6)Gal(b1-4)GlcNAc(b1-3)Gal(b1-4)GlcNAc(b1-2)Man(a1-3)[Neu5Ac(a2-6)Gal(b1-4)GlcNAc(b1-3)Gal(b1-4)GlcNAc(b1-2)Man(a1-6)]GalNAc
# Procedure, shortened: as §1
# [16] = molecular target: Neu5Ac(a2-6)Gal(b1-4)GlcNAc(b1-3)Gal(b1-4)GlcNAc(b1-3)Gal(b1-4)GlcNAc
# Procedure, shortened: as §1
# [17] = molecular target: Neu5Ac(a2-6)Gal(b1-4)GlcNAc(b1-3)Gal(b1-4)GlcNAc(b1-3)Gal(b1-4)GlcNAc(b1-2)Man(a1-3)[Neu5Ac(a2-6)Gal(b1-4)GlcNAc(b1-3)Gal(b1-4)GlcNAc(b1-3)Gal(b1-4)GlcNAc(b1-2)Man(a1-6)]GalNAc
# Procedure, shortened: as §1
# [18] = molecular target: Neu5Ac(a2-6)Gal(b1-4)GlcNAc(b1-3)Gal(b1-4)GlcNAc(b1-3)GalNAc
# Procedure, shortened: as §1
# [19] = molecular target: Neu5Ac(a2-6)Gal(b1-4)GlcNAc(b1-3)Gal(b1-4)GlcNAc(b1-3)[Neu5Ac(a2-6)Gal(b1-4)GlcNAc(b1-3)Gal(b1-4)GlcNAc(b1-6)]GalNAc
# Procedure, shortened: as §1
# [20] = molecular target: Neu5Ac(a2-6)Gal(b1-4)GlcNAc(b1-3)Gal(b1-4)GlcNAc(b1-6)[Gal(b1-3)]GalNAc
# Procedure, shortened: as §1
# [21] = molecular target: Neu5Ac(a2-6)Gal(b1-4)GlcNAc(b1-3)Gal(b1-4)[Fuc(a1-3)]GlcNAc(b1-3)Gal(b1-4)[Fuc(a1-3)]GlcNAc
# Procedure, shortened: as §1
# [22] = molecular target: Neu5Ac(a2-6)Gal(b1-4)GlcNAc(b1-3)GalNAc
# Procedure, shortened: as §1
# [23] = molecular target: Neu5Ac(a2-6)Gal(b1-4)GlcNAc(b1-3)[Neu5Ac(a2-6)Gal(b1-4)GlcNAc(b1-6)]GalNAc
# Procedure, shortened: as §1
# [24] = molecular target: Neu5Ac(a2-6)Gal(b1-4)GlcNAc(b1-6)GalNAc
# Procedure, shortened: as §1
# [25] = molecular target: Neu5Ac(a2-6)Gal(b1-4)GlcNAc(b1-6)[Gal(b1-3)GlcNAc(b1-3)]Gal(b1-4)Glc
# Procedure, shortened: as §1
# [26] = molecular target: Neu5Ac(a2-6)Gal(b1-4)GlcNAc(b1-6)[Gal(b1-3)]GalNAc
# Procedure, shortened: as §1
# [27] = molecular target: Neu5Ac(a2-6)Gal(b1-4)GlcNAc6S
# Procedure, shortened: as §1
# Neu5Ac(a2-6)GalNAc = molecular target: Neu5Ac(a2-6)GalNAc
# Procedure, shortened: as §1
# [28] = molecular target: Neu5Ac(a2-6)GalNAc(b1-4)GlcNAc
# Procedure, shortened: as §1
# [29] = molecular target: Neu5Ac(a2-6)GalNAc(b1-4)GlcNAc6S
# Procedure, shortened: as §1
# [30] = molecular target: Neu5Ac(a2-6)GlcNAc(b1-4)GlcNAc
# Procedure, shortened: as §1
# [31] = molecular target: Neu5Ac(a2-6)GlcNAc(b1-4)GlcNAc(b1-4)GlcNAc
# Procedure, shortened: as §1
binder,measurement,setting,value
"UEA-I (Ulex europaeus), P22972 (protein) SDDLSFKFKNFSQNGKDLSFQGDASVIETGVLQLNKVGNNLPDETGGIARYIAPIHIWNCNTGEVASFITSFSFFMETSANPKAATDGLTFFLAPPDSPLRRAGGYFGLFEDTKDNDSSYQTVAVEFDTIGSPVNFDDPGFPHIGIDVNRVKSINAERWNKRYGLNNVANVEIIYEASSKTLTASLTYPSDQTSISVTSIVDLKEILPEWVSVGFSGGTYIGRQATHEVLNWYFTSNLINTNS",glycan array binding signal (z-score),[1],-0.293
same,glycan array binding signal (z-score),[2],-0.216
same,glycan array binding signal (z-score),[3],-0.179
same,glycan array binding signal (z-score),[4],-0.19
same,glycan array binding signal (z-score),[5],-0.167
same,glycan array binding signal (z-score),[6],-0.155
same,glycan array binding signal (z-score),[7],-0.202
same,glycan array binding signal (z-score),[8],-0.19
same,glycan array binding signal (z-score),[9],-0.205
same,glycan array binding signal (z-score),[10],-0.211
same,glycan array binding signal (z-score),[11],-0.236
same,glycan array binding signal (z-score),[12],-0.263
same,glycan array binding signal (z-score),[13],-0.212
same,glycan array binding signal (z-score),[14],-0.229
same,glycan array binding signal (z-score),[15],-0.1
same,glycan array binding signal (z-score),[16],-0.199
same,glycan array binding signal (z-score),[17],0.121
same,glycan array binding signal (z-score),[18],-0.253
same,glycan array binding signal (z-score),[19],1.03
same,glycan array binding signal (z-score),[20],-0.032
same,glycan array binding signal (z-score),[21],-0.17
same,glycan array binding signal (z-score),[22],-0.148
same,glycan array binding signal (z-score),[23],-0.028
same,glycan array binding signal (z-score),[24],-0.14
same,glycan array binding signal (z-score),[25],-0.203
same,glycan array binding signal (z-score),[26],-0.185
same,glycan array binding signal (z-score),[27],-0.211
same,glycan array binding signal (z-score),Neu5Ac(a2-6)GalNAc,-0.221
same,glycan array binding signal (z-score),[28],-0.152
same,glycan array binding signal (z-score),[29],-0.273
same,glycan array binding signal (z-score),[30],-0.161
same,glycan array binding signal (z-score),[31],0.158
